This note sets out measurements from article PMC12040169 (PLOS Biology, 2025).

The other results are listed elsewhere or left out.

The test system of the experiment is T1, C. trachomatis L2/434/Bu expressing GFP (CTL2-GFP).
T1 construct: L2/434/Bu GFP intracellular growth in HeLa cells
Set-up: species or system HeLa; C. trachomatis total inclusion area by high-content imaging, normalised to DMSO. The settings on record: total inclusion area; 28.5 h, 10 µM; inhibitor. The method, boiled down:
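High-content imaging followed the bulk GFP/resorufin measurement: fixed, Hoechst-stained cells were scored for GFP inclusions and host nuclei per well. Total inclusion area and count served as growth proxies, nuclei number as the viability proxy. MIC calculation matched the bulk assay.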
With `CCOc1ccc(-c2cc(C(=O)NCc3cc(OC)ccc3OC)n[nH]2)cc1` [CBK288116], the “% of control remaining” value came to 86.7632.

`CCC(CO)NC(=O)C1(Cc2ccc(-c3cc(C)cc(C)c3)cc2)CCOCC1` (stereo not shown) [CBK286522]: the “% of control remaining” value was 117.199.

As for `O=C(Cc1ccc(F)cc1)N1CC[C@@H](c2ccccc2)[C@H](O)C1` [CBK283714], the “% of control remaining” value was 95.7596.

As to `Cc1cc(NC(=O)C(C)SCc2cccc(C(F)(F)F)c2)no1` (stereo not shown) [CBK306233], the “% of control remaining” value was 33.9901.

With `c1ccc2c(c1)OCC(COc1nccnc1OC1CCN(CC3CC3)CC1)O2` (stereo not shown) [CBK083001T], the “% of control remaining” value was determined as 83.582.

Take `O=C(CC1CCN(Cc2cccc(C(F)(F)F)c2)CC1)N(Cc1ccccn1)C1CC1` [CBK286494]: the “% of control remaining” value amounted to 69.9637.

For the molecule `Cn1ccnc1C1(O)CCN(C(=O)Nc2cccc(F)c2)CC1` [CBK282279], the “% of control remaining” value was found to be 92.4301.

As to `CN(C)CCCN(C(=O)c1ccccc1)c1nc2ccc(F)cc2s1` [CBK287640], the “% of control remaining” value worked out at 79.6259.

On to `O=C(CSc1nnc(CN2CCOCC2)n1-c1ccccc1)N1CCN(c2ccccc2)CC1` [CBK266660], for which the “% of control remaining” value came to 115.809.

Take `COc1ncc(-c2nccnc2OC2CCCCC2)c(OC)n1` [CBK106745]: the “% of control remaining” value was found to be 94.4187.

For the molecule `CCC(C)c1ccc(NC(=O)CSc2nc3cccnc3[nH]2)cc1` (stereo not shown) [CBK264349], the “% of control remaining” value stood at 120.159.

Take `O=C(Cn1cncn1)c1ccc2c(c1)CCO2` [CBK020087]: the “% of control remaining” value worked out at 46.2841.

In the case of `COc1cc(Nc2cc(-c3ccccc3N(C)C)ncn2)cc(OC)c1OC` [CBK090702], the “% of control remaining” value was 49.0567.

As to `COC(=O)[C@H]1Cc2cc3c(cc2[C@H]1c1cc(OC)c(OC)c(OC)c1)OCO3` [CBK200105], the “% of control remaining” value was found to be 10.8411.

As for `O=C1NCC2(C/C=C/CCOc3ccccc31)CCN(C(=O)CCc1ccccc1)CC2` [CBK292017], the “% of control remaining” value was 106.506.

Take `Cc1ccc(OCC(=O)O/N=C(\N)Cc2ccc([N+](=O)[O-])cc2)c(C)c1` [CBK263102]: the “% of control remaining” value was 98.6365.

As for `CC1CCc2c(sc3ncnc(NCC(=O)N4CCCC4)c23)C1` (stereo not shown) [CBK306079], the “% of control remaining” value is on record as 105.776.

Consider `CN(C)S(=O)(=O)CCNC(=O)c1ccc(-c2ccccc2CO)cc1` [CBK306773], for which the “% of control remaining” value amounted to 75.7001.

For the molecule `Cn1ccnc1C1(O)C2CCCC1CN(CC1CCCCC1)C2` (stereo not shown) [CBK285220], the “% of control remaining” value is reported as 119.182.

On to `O=C1NC2(CCN(C(=O)Cc3c(F)ccc(F)c3F)CC2)Oc2ccc(-c3ccoc3)cc21` [CBK115848], for which the “% of control remaining” value came out at 91.4049.

On to `CCn1c(C(O)c2ccc(OC)c(OC)c2)nc2ccccc21` (stereo not shown) [CBK262974], for which the “% of control remaining” value is reported as 80.1197.

In the case of `COc1ccnc(N2CCCN(CCc3ccc(OC)c(OC)c3)CC2)n1` [CBK084002], the “% of control remaining” value turned out to be 85.3637.

With `COc1ccc2cc(OCCO)ccc2c1` [CBK176054], the “% of control remaining” value is on record as 54.7316.

For `O=C(CC1CCN(Cc2ccccn2)CC1)NCC1(c2ccccc2)CCCC1` [CBK285959], the “% of control remaining” value is recorded as 115.015.

Regarding `CC1=C[C@@H](CNC(=O)c2ccccn2)[C@H](C(C)C)C[C@H]1CC(=O)O` [CBK289212], the “% of control remaining” value turned out to be 107.074.

Consider `COc1ccc(-c2ccc3n(c2=O)C[C@H]2C[C@@H]3CN(C(=O)c3ccncc3)C2)cc1` [CBK289178], for which the “% of control remaining” value is listed as 98.5508.

Regarding `FC(F)(F)c1ccc(CN2CCN(c3nccnc3OCc3cccnc3)CC2)cc1` [CBK083133T], the “% of control remaining” value came to 69.0273.

Consider `CC(NC(=O)Cc1cccs1)c1nc2cccnc2n1C(C)C` (stereo not shown) [CBK283828], for which the “% of control remaining” value is listed as 111.197.

Regarding `CCN(CC(=O)N1CCN(C)CC1)S(=O)(=O)c1ccc(OC)cc1` [CBK269374], the “% of control remaining” value turned out to be 83.7652.

Regarding `CCOC(=O)c1cn(CC)c2cc(F)c(OCC)cc2c1=O` [CBK307139], the “% of control remaining” value is given as 52.97.

On to `CN(C)CC(=O)NC(Cc1cccs1)c1nccs1` (stereo not shown) [CBK285061], for which the “% of control remaining” value turned out to be 101.316.

`Cc1cc(C(=O)N2CCC(N3C(=O)OCC3(C)C)CC2)n(C(C)(C)C)n1` [CBK044233]: the “% of control remaining” value is recorded as 99.5812.

For the molecule `COc1ccc(/C=N/NC(=O)Cc2cccn2C)cc1[N+](=O)[O-]` [CBK262789], the “% of control remaining” value came to 105.173.

With `CC(=O)Nc1cccc(C(=O)NCC(c2cccs2)N(C)C)c1` (stereo not shown) [CBK304583], the “% of control remaining” value turned out to be 26.5284.

Consider `CN1CCN(Cc2nc3c(c(=O)n(C)c(=O)n3C)n2CCc2ccccc2)CC1` [CBK269507], for which the “% of control remaining” value worked out at 88.8887.

For `CC(C)c1cc(C(=O)N2CCCCCC2c2ccn(C)n2)no1` (stereo not shown) [CBK283048], the “% of control remaining” value is given as 100.474.

With `COc1ccc(-c2cc(NCc3cc(OC)c(OC)c(OC)c3)ncn2)cc1` [CBK091184], the “% of control remaining” value was determined as 121.874.

For `CSc1nnc(-c2ccccc2O)n1CCc1ccccc1` [CBK076668], the “% of control remaining” value was found to be 94.3082.

In the case of `Nc1ncc(-c2ccsc2)nc1-c1ccc(O)cc1` [CBK115631], the “% of control remaining” value worked out at 74.8954.

`CC(C)(N)CC(=O)N1CCC(Cn2cncn2)(C2CCCCC2)CC1` [CBK136822]: the “% of control remaining” value was 62.8862.
